Drawing on PubChem BioAssay AID1745853 (National Center for Advancing Translational Sciences (NCATS), 2022), this text covers activity change, negative = inhibition for 27 molecules.

Several values for one entry are separate records, joined by “and”; a condition that tells them apart may be missing. Identical values can stand only once. This is one part of the list. Further columns of the screen follow, without active or inactive calls.

Holding throughout (experiment): Primary Screen for Target Class Profiling of Small Molecule Inhibitors of Methyltransferases
The target of assay [1] is Glycine N-methyltransferase (Homo sapiens) (UniProt Q14749). The note with it: purified enzyme, MTase-Glo SAH luminescence; measured here: GNMT inhibition; at 40 µM; stronger effect = lower value. In a few lines: (§1)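 Each enzyme was assayed with SAM and its substrate. SAH formation detected by MTase-Glo luminescence; single-point 40 uM screen[…].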
Assay [2] concerns the target Guanidinoacetate N-methyltransferase (Homo sapiens) (UniProt Q14353). The note with it: purified enzyme, MTase-Glo SAH luminescence; measured here: GAMT inhibition; at 40 µM; stronger effect = lower value. In a few lines:
as §1

For assay [3], the target named is Histamine N-methyltransferase (Homo sapiens) (UniProt P50135). The note with it: purified enzyme, MTase-Glo SAH luminescence; measured here: HNMT inhibition; at 40 µM; stronger effect = lower value. In a few lines:
as §1

Assay [4] concerns the target Nicotinamide N-methyltransferase (Homo sapiens) (UniProt P40261). The settings on record: purified enzyme, MTase-Glo SAH luminescence; measured here: NNMT inhibition; at 40 µM; stronger effect = lower value. In a few lines:
as §1

For assay [5], the target named is Phenylethanolamine N-methyltransferase (Homo sapiens) (UniProt P11086). The note with it: purified enzyme, MTase-Glo SAH luminescence; measured here: PNMT inhibition; at 40 µM; stronger effect = lower value. In short, it runs like this: as §1
% is scaled to controls: 0 for no effect and ±100 for the full control effect.

In the case of `CC(=O)N1CC[C@]2(O)CCN(C(=O)CCCc3ccc(F)cc3)C[C@@H]2C1`, the activity change, negative = inhibition in assay [1] is -2.56%; in assay [2], -3.55%; in assay [3], -0.965%; in assay [4], -6.25%; in assay [5], -3.36%.

For the molecule `CC(=O)O[C@@H]1[C@@H](O)[C@H](C)O[C@@H](O[C@H]2[C@@H]3C=CO[C@@H](O[C@@H]4O[C@H](CO)[C@@H](O)[C@H](O)[C@H]4OC(C)=O)[C@@H]3[C@@]3(CO)O[C@@H]23)[C@@H]1OC(=O)/C=C/c1ccc(O)cc1`, the activity change, negative = inhibition in assay [1] was 0.851%; in assay [2], 4.44%; in assay [3], 2.39%; in assay [4], -8.94%; in assay [5] it was 3.45%.

Take `Cc1cn2c(N)c(Cl)cc(C(=O)NCC3CCN(CC(C)C)CC3)c2n1`: the activity change, negative = inhibition is -14.7% in assay [1]; -5.9% in assay [2]; -16.5% in assay [3]; -18.1% in assay [4]; -10.4% in assay [5].

Consider `Cn1c(=O)n(C)c2cc(S(=O)(=O)N3CCN(C4CCCCC4)CC3)ccc21`, for which the activity change, negative = inhibition in assay [1] was 1.07%; in assay [2], 0%; in assay [3] it was -61.4%; in assay [4], 12.7%; in assay [5] it was 2.48%.

In the case of `COCCNc1nc(C)nc2c1CCN(C(=O)c1ccoc1)CC2`, the activity change, negative = inhibition in assay [1] was -4.6%; in assay [2] it was -4.46%; in assay [3] it was -1.43%; in assay [4] it was -10.1%; in assay [5], -4.39%.

Regarding `CC1(C(=O)NC2CCCC2)Cn2c(ccc2-c2ccco2)C(=O)N1CCc1ccc(Cl)cc1` (configuration not stated), the activity change, negative = inhibition is -6.35% in assay [1]; 4.72% in assay [2]; 2.6% in assay [3]; -4.58% in assay [4]; -2.8% in assay [5].

Turning to `CCCc1cnc(C)nc1N1CC[C@@H](NC(=O)c2cnccn2)[C@H](O)C1`, the activity change, negative = inhibition in assay [1] was -11.8%; in assay [2], -6.01%; in assay [3], -0.397%; in assay [4], -9.05%; in assay [5] it was -1.76%.

In the case of `CCOC(=O)[C@H](CCc1ccccc1)N[C@@H](C)C(=O)N1C2CCCCC2C[C@H]1C(=O)O` (some centres not stated), the activity change, negative = inhibition is 2.42% in assay [1] and 9.14% in assay [3].

With `CN(CCCOc1ccc(Cc2ccccc2)cc1)CCC(=O)O`, the activity change, negative = inhibition in assay [1] is 5.42% and -2.71%; in assay [2], 14.3% and 5.29%; in assay [3], 9.8% and 10.7%; in assay [4] it was 0.842% and -12.8%; in assay [5] it was 7.95% and 5.25%.

`CC1CCCCC1NC(=O)C1(C)Cn2c(nc3ccccc32)C(=O)N1CCCc1ccccc1` (configuration not stated): the activity change, negative = inhibition in assay [1] stood at 0.128%; in assay [2], 0%; in assay [3], 3%; in assay [4], 4.82%; in assay [5], 0.858%.

In the case of `CCC1c2ccc(C)n2CCN1C(=O)Nc1cccc2c1CCCC2` (configuration not stated), the activity change, negative = inhibition in assay [1] was 0.336%; in assay [2] it was 0%; in assay [3], -8.01%; in assay [4], -3.29%; in assay [5] it was -0.484%.

Take `Cn1c(=O)n(C)c2cc(S(=O)(=O)N3CCN(c4ccccc4)CC3)ccc21`: the activity change, negative = inhibition in assay [1] is 0.804%; in assay [2], 5.7%; in assay [3], 7.41%; in assay [4], 12.7%; in assay [5] it was 2.51%.

With `Cn1c(=O)c2ccc(C(=O)NC3CCCCC3)cc2n2c(=O)n(Cc3c(F)cccc3Cl)nc12`, the activity change, negative = inhibition in assay [1] is -0.575%; in assay [2] it was -1.91%; in assay [3], 4.18%; in assay [4] it was -1.26%; in assay [5], -2.45%.

Take `COc1ccc(CN2C(=O)c3cc4oc(C)cc4n3CC2(C)C(=O)NC2CCCCC2)cc1` (configuration not stated): the activity change, negative = inhibition in assay [1] was -0.036%; in assay [2] it was 0%; in assay [3], 2.76%; in assay [4] it was -6.44%; in assay [5], 0.209%.

Consider `C=C1C(O)C(O)C2(CC3C(C)=CCC4C(C)(CO)CCCC34C)OC2C1O` (configuration not stated), for which the activity change, negative = inhibition in assay [1] is -3.45%; in assay [2], -2.17%; in assay [3], 9.54%; in assay [4], -18.4%; in assay [5], -13.2%.

As for `COCc1nc(CCNC(=O)C2CC2)no1`, the activity change, negative = inhibition is -0.696% in assay [1]; -3.56% in assay [2]; 1.55% in assay [3]; 1.8% in assay [4]; -0.439% in assay [5].

As to `O=C(Cn1c(=O)oc2cc(S(=O)(=O)N3CCCC3)ccc21)Nc1ccccn1`, the activity change, negative = inhibition in assay [1] was -0.294%; in assay [2] it was 4.25%; in assay [3] it was 5.46%; in assay [4], 8.64%; in assay [5], -5.01%.

With `COc1ccc(NC(=O)Nc2cnc3c(c2)CCC3)cc1`, the activity change, negative = inhibition was -6.23% in assay [1]; -4.41% in assay [2]; -32.7% in assay [3]; 0.26% in assay [4]; -5.47% in assay [5].

With `CN(Cc1ccccc1)c1ccc(C(=O)N2CCC(CN3CCCC3=O)CC2)cn1`, the activity change, negative = inhibition is -3.89% in assay [1]; -2.02% in assay [2]; -2.55% in assay [3]; -9.88% in assay [4]; -3.27% in assay [5].

`O=C(Nc1ccc(F)cc1)N1CCc2ccccc2C1c1ccc(C(F)(F)F)cc1` (configuration not stated): the activity change, negative = inhibition is -9.14% in assay [1]; -35.2% in assay [2]; -1.99% in assay [3]; -46.3% in assay [4]; -9.69% in assay [5].

For the molecule `C=C1C(=O)O[C@@H]2/C=C(\CO)CC/C=C(\CO)[C@H](OC(C)=O)C(OC(=O)C(C)CC)C12` (some centres not stated), the activity change, negative = inhibition was 3.21% in assay [1]; 6% in assay [2]; 5.57% in assay [3]; -8.41% in assay [4]; 4.98% in assay [5].

On to `C=C(C)C(C)C1OC23CC4(CO2)C(CCC2C5(C)CCC(OC6OCC(O)C(OC7OC(CO)C(O)C(OC8OCC(O)C(O)C8O)C7O)C6OC6OC(CO)C(O)C6O)C(C)(C)C5CCC24C)C3C(C)(O)C1OC(C)=O` (configuration not stated), for which the activity change, negative = inhibition in assay [1] amounted to 4.47%; in assay [2], 14.5%; in assay [3] it was 6.54%; in assay [4] it was 2.14%; in assay [5], 11.6%.

On to `C=C1C(OC(C)=O)C(=O)C2C(C)(C)C(OC(C)=O)CCC2(C)C1CC(OC(C)=O)/C(C)=C/COC(C)=O` (configuration not stated), for which the activity change, negative = inhibition was -3.89% in assay [1]; -3.17% in assay [2]; 3.09% in assay [3]; -12.9% in assay [4]; 0.899% in assay [5].

For the molecule `COc1ccc(CNC(=O)c2cc3n(n2)CC(C)(C(=O)NCc2ccc(C)cc2)N(C)C3=O)cc1OC` (configuration not stated), the activity change, negative = inhibition is -0.143% in assay [1]; 3.65% in assay [2]; 0.465% in assay [3]; 3.93% in assay [4]; 2.81% in assay [5].

Regarding `CCS(=O)(=O)N1CCC2(CCC2OC)CC1` (configuration not stated), the activity change, negative = inhibition in assay [1] is -2.94%; in assay [2], 0.171%; in assay [3] it was 0.945%; in assay [4], -5.55%; in assay [5], -8.65%.

Consider `COc1cccc(CN2Cc3cc(NS(=O)(=O)c4ccccc4)ccc3OCC2=O)c1OC`, for which the activity change, negative = inhibition in assay [1] is -9.09%; in assay [2], -7.87%; in assay [3] it was -6.5%; in assay [4], -11.7%; in assay [5] it was -13.2%.

For the molecule `CC1(C(=O)NC2CCCCCC2)Cn2c(cc3sccc32)C(=O)N1C1CCCC1` (configuration not stated), the activity change, negative = inhibition turned out to be 4.37% in assay [1]; 0% in assay [2]; 8.78% in assay [3]; 11.4% in assay [4]; 5.36% in assay [5].
